# Measured values as given in PubChem BioAssay AID488969 (Vanderbilt High Throughput Screening Facility, 2010).
# Whole data set: some 110,000 compounds, median “z-score” near -0.1, cut for the highest 2% near 2. This is one part of the list.
# Molecular target: Metabotropic glutamate receptor 8 (Rattus norvegicus) (UniProt P70579)
# Assay: mGluR8 Gi/Go-coupled signaling modulation – cell-based, rat, thallium flux, HTS, primary screen (AID 488969)
# Details: HEK293 rat mGluR8, GIRK (G protein-gated inwardly rectifying potassium channel) thallium flux, FluoZin2; at 10 µM; stronger effect = higher value; submaximal glutamate (EC20) added with thallium
# Chain of UniProt P70579 (P70579 whole entry, looked up): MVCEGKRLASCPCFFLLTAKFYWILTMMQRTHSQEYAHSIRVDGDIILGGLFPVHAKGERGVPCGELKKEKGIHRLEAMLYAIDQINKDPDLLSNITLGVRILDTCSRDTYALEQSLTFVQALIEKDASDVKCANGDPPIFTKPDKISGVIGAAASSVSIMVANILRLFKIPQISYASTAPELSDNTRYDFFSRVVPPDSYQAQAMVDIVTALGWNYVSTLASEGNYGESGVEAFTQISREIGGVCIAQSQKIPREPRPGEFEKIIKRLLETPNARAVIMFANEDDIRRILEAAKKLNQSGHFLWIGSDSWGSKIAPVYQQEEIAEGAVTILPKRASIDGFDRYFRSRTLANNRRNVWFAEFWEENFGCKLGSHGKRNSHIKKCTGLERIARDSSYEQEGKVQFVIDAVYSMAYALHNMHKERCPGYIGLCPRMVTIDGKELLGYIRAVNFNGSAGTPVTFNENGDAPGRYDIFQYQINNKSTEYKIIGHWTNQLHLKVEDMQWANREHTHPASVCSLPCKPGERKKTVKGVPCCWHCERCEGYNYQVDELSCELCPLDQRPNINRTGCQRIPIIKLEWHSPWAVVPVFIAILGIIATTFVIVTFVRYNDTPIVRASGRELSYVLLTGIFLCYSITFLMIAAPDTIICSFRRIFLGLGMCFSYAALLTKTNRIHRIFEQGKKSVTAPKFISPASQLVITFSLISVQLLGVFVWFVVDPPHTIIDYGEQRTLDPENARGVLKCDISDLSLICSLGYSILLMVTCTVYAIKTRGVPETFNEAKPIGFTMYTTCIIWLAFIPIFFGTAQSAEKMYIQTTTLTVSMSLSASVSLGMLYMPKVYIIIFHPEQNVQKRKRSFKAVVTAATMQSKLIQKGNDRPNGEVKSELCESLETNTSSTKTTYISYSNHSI
row,Structure (SMILES),z-score
1,N=c1n(CCN2CCCCC2)c2ccccc2n1CC(O)c1cccc(Br)c1 (stereo not drawn),0.566
2,CCOC(=O)c1cnc2ccc(OCC)cc2c1N1CCN(c2ccccc2OC)CC1,-0.8
3,COC(=O)c1ccc(COc2cc(O)c3c(c2)OC(C)(C)CC3=O)cc1,-0.128
4,CCN(CC)C(=O)C(C)OC(=O)COc1ccc(Cl)cc1C (stereo not drawn),-0.745
5,Nc1cc(S(=O)(=O)C(F)(F)F)ccc1C(=O)O,0.966
6,Cc1c(N/C=C/C(=O)c2ccc(Cl)cc2)c(=O)n(-c2ccccc2)n1C,-0.424
7,O=C(N/N=C/c1ccc(-c2cccc(C(F)(F)F)c2)o1)c1ccccc1O,0.304
8,Cc1ccn2c(C(=O)N/N=C/c3ccc(CNC(=O)C(=O)Nc4ccc(C)c(C)c4)o3)c(C)nc2c1,0.623
9,Cc1cccc(OCc2n[nH]c(=S)n2C2CCCCC2)c1,1.58
10,Cc1ccc(CN2CCNC2=O)cc1,0.0114
11,Cc1ccc(NCC(=O)Nc2ccc(Br)cc2)cc1F,-0.218
12,CCCN(CCC)CCCNC(=S)Nc1ccc2nc3n(c(=O)c2c1)CCCCC3,0.0563
13,CSc1c(-c2ccccc2)nc2ccccc2c1C(=O)O,-0.543
14,O=C(NCc1ccco1)c1cccnc1-c1nc2ccccc2s1,-0.0281
15,CCC(=O)Nc1ccc(C(=O)CSc2nnc(-c3ccc(O)cc3)n2CC2CCCO2)cc1OC (stereo not drawn),-0.293
16,Cc1nn(CC(=O)N2CCOCC2)c(C)c1[N+](=O)[O-],0.117
17,O=C(CCCOc1ccccc1)N1CCc2ccccc2C1,-0.208
18,CNC(=S)N1N=C(c2ccc(C)cc2)CC1c1ccc(Cl)cc1 (stereo not drawn),0.0666
19,C=CCNC(=S)NNC(=O)c1cccn(Cc2cccc(Cl)c2)c1=O,-1.25
20,N#CC1=C(Nc2ccccc2)SC=C(c2ccc(Br)cc2)N=C1N1CCOCC1,1.24
21,Cc1csc(NC(=O)CN2C(=O)C3CC=CCC3C2=O)n1 (stereo not drawn),-0.15
22,CN(C)S(=O)(=O)c1cccc(C(=O)Nc2cc(Cl)ccc2O)c1,0.0082
23,O=C(O)CCC(=O)N1CCC(C(=O)c2cccc(Cl)c2)CC1,-0.304
24,Cc1cc(C(=O)OCC(=O)c2ccc3c(c2)NC(=O)CO3)c2ccccc2n1,-0.0899
25,COc1ccccc1NC(=O)CSC1CC(=O)N(c2ccc3c(c2)OCO3)C1=O (stereo not drawn),-0.403
26,O=C(CSc1nnc(Nc2ccccc2)s1)NN1C(=O)NC2(CCCCC2)C1=O,2.14
27,c1ccc(CNc2ncnc3nc[nH]c23)nc1,-0.0174

row,Structure (SMILES),z-score
1,S=C(NCCN1CCOCC1)N/N=C/c1ccccc1,0.728
2,COc1ccc(C(C(=O)NC2CCCCC2)N(C(=O)Cc2c[nH]c3ccccc23)c2ccc(NC(C)=O)cc2)cc1OC (stereo not drawn),-0.0903
3,CCCc1[nH][nH]c(=O)c1C(c1ccccc1)C(C#N)C#N (stereo not drawn),-1.39
4,Cc1cccc(C)c1OCC(O)CNC(C)(C)C (stereo not drawn),0.176
5,COc1ccc(-c2cc(C(=O)N3CCN(c4ccccn4)CC3)c3ccccc3n2)cc1,-0.597
6,COc1ccc(C2CC(=O)CC(=O)C2n2cncn2)cc1 (stereo not drawn),0.105
7,CCC(Oc1ccccc1)C(=O)Nc1nc2c(s1)C(=O)CC(C)(C)C2 (stereo not drawn),-0.962
8,CCN(CCCNC(=O)c1ccc(N2CCCC2=O)cc1)c1cccc(C)c1,-0.154
9,Oc1ccc(Oc2ccc3c(C(F)(F)F)cc(C(F)(F)F)nc3n2)cc1,-1.52
10,Cc1cccc(-c2nc3c(c(SCC(N)=O)n2)CCCC3)c1,0.543
11,CN1CCN(c2cc3c(c4c2[nH]c2ccccc24)C(=O)CC(C)(C)C3)CC1,-0.0891
12,COc1ccccc1NC(=O)N1CCC(c2nc3cc(C)c(C)cc3[nH]2)CC1,0.249
13,CCOC(=O)Cn1c(=O)n(C2CCCC2)c(=O)c2ccccc21,-1.73
14,Cc1ccc(C)c(N2CCN(S(=O)(=O)c3ccc4c(c3)oc(=O)n4C)CC2)c1,0.548
15,CC(=O)c1cnc2c(-c3cccc(Br)c3)cnn2c1C,0.0939
16,O=C(CSc1nc2cc(Cl)ccc2s1)NCc1ccc2c(c1)OCO2,-0.0385
17,CCCCn1c(SCC(=O)N2c3ccccc3Sc3ccccc32)nc2c1c(=O)n(C)c(=O)n2C,-0.313
18,O=C(COC(=O)Cn1cnc2ccccc2c1=O)Nc1ccc(Cl)cc1,-0.163
19,c1cncc(C(c2nnnn2C2CCCC2)N2CCN(Cc3ccc4c(c3)OCO4)CC2)c1 (stereo not drawn),0.0897
20,Cc1ccccc1OCc1nnc(SCc2cc(=O)[nH]c3ccccc23)o1,-0.43
21,CC1Cc2nc(SCC(=O)N3CCc4ccccc43)n(C)c(=O)c2S1 (stereo not drawn),-0.426
22,CCN(C(=O)CSc1cc(-c2ccccc2)c2ccc(OC)cc2n1)C1CCS(=O)(=O)C1 (stereo not drawn),-0.108
23,COc1cccc(C(=O)COC(=O)C(C)N2C(=O)c3ccccc3C2=O)c1 (stereo not drawn),-0.703
24,Cc1onc(-c2ccccc2Cl)c1C(=O)N(Cc1nc(-c2ccccc2)no1)C1CCCCC1,-0.156
25,CCn1c(SCC(=O)Nc2nc3ccccc3s2)nnc1-c1ccc(Br)cc1,-0.423
26,CCc1c(C)nc2cc(-c3ccc(OC)c(OC)c3)nn2c1N1CCCC1,-1.67
